The whole screen tested about 350,000 compounds, of which about 260 (0.074%) were called active. The shares of active, inactive and inconclusive entries below differ from those in the screen. Calls come from the whole dose curve; as a rule, active = well fitted inhibition curve with a large enough effect; inconclusive = small, poorly fitted or top-dose-only effect; inactive = no such curve, though single readings can be large or run the other way. Where the call is inconclusive, the potency comes from a doubtful curve fit.
molecular target: Ferritin light chain (Equus caballus) (UniProt P02791); test: qHTS Assay for Identification of Novel General Anesthetics; details: apoferritin/1-aminoanthracene competitive binding, fluorescence; series mostly up to 77.5 µM; note: nearly all actives have a fitted effect of over 20% in size
Outline: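 Probe: 1-aminoanthracene (50% saturated, PBS). Protein: horse-spleen apoferritin, 10 uM. Incubation: 10 min, room temperature. Detection: 380 nm excitation, 535 nm emission. Analysis: normalized response, four-parameter Hill.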
Potency is the fitted concentration of half-maximal effect; tags give direction and shape of the fitted curve.

Sequence of UniProt P02791 (P02791 whole entry, looked up): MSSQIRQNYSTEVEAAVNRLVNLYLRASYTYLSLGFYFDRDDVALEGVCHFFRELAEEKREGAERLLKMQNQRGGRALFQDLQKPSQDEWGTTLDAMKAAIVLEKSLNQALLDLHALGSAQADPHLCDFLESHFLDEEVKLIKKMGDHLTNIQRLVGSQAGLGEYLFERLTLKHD

Potency, inactive:
CC(C)(C)C(=O)/C=C(\N)c1ccncc1
CCOc1cc(NC(=S)NCC2CCCO2)c(OCC)cc1NC(=O)c1ccccc1C (centres undefined)
Cc1ccn2cc(-c3cnoc3C)nc2c1
Cc1ccc(NC(=O)C(=O)NC2CCCCC2)cc1
C=CCNc1c2c(nc3ncnn13)CC(C)CC2 (centres undefined)
COc1ccc(NC(=O)N[C@@H](CCSC)C(=O)O)cc1OC
NC(=O)c1ccc2nc(-c3ccccc3)c(-c3ccccc3)nc2c1
CCCC(=O)Nc1cc2nn(-c3ccc(OC)cc3)nc2cc1C
Cc1noc(C)c1-c1ccc2ncnc(NC(C)c3ccccc3)c2c1 (centres undefined)
CCOc1ccc2nc(NC(=O)CCn3cccc3)sc2c1
Cc1oc(-c2cccc(Cl)c2)nc1CSc1nc2c(c(=O)[nH]1)CCC2
Cc1ccccc1NC(=O)/C=C/c1ccc([N+](=O)[O-])s1
COc1ccc(CCNc2ncnc3c2c(-c2ccccc2)cn3-c2ccc(Cl)cc2)cc1OC
Cc1[nH]nc(-c2ccc(O)cc2O)c1-c1ccc(Cl)cc1
Cc1[nH]nc2c1C(Cc1ccccc1)C(C#N)=C(N)O2 (centres undefined)
CCOc1ccccc1NC(=O)Cn1c(=O)n(Cc2ccc(OC)cc2)c(=O)c2oc3ccccc3c21
S=c1[nH]nc(C2CCCCC2)n1/N=C/c1ccc(Br)cc1
CC(=O)c1ccc(N2CCN(CC(O)COC(c3ccccc3)c3ccccc3C)CC2)cc1 (centres undefined)

Potency, inconclusive:
CC(C)(C)NC(=O)C(c1ccncc1)N(Cc1ccc(F)cc1)C(=O)c1ccc(-c2ccccc2)[nH]1 (centres undefined) 8.91 µM [inhibitor, full curve, poor fit]
O=[N+]([O-])c1cccc(-c2ccc(SCc3cccnc3)nn2)c1 39.8 µM [inhibitor, partial curve]
Cc1ccc(CNC(=O)c2cn(C3CCCCC3)c(=O)c3c2c2ccccc2n3C)o1 2.82 µM [inhibitor, partial curve]
CCN(CC)S(=O)(=O)c1ccc(-c2nnc3sc4cccc(C)c4n23)cc1 50.1 µM [inhibitor, partial curve]
C=CCNc1oc(COc2ccc(C)cc2)nc1C#N 25.1 µM [inhibitor, partial curve]
O=C(C(Cc1ccccc1)n1cccc1)N1CCCCC1 (centres undefined) 35.5 µM [inhibitor, partial curve]
CCc1ccc(/C=N/NC(=O)c2cc(C3CC3)nc3ccccc23)s1 22.4 µM [inhibitor, partial curve]
CC1CC(C)CN(C(=O)COC(=O)Cc2ccc(Br)cc2)C1 (centres undefined) 35.5 µM [inhibitor, single point]
CCOc1cc(CNCCc2ccc(S(N)(=O)=O)cc2)ccc1OCc1ccccc1 20 µM [inhibitor, partial curve]
CC(=O)Nc1ccc(N2CCCCC2)c(C(=O)Nc2cccc(C)c2)c1 28.2 µM [inhibitor, partial curve]
Nn1c(Cc2cccc3ccccc23)nnc1SCn1nnc2ccccc2c1=O 44.7 µM [inhibitor, single point]
CC1CCCC(C)N1C(=O)CSc1nc(N)cc(N)n1 (centres undefined) 31.6 µM [inhibitor, single point]
Cc1cc(NN)nc(NS(=O)(=O)c2ccccc2)n1 31.6 µM [inhibitor, single point]
CCCCC(CC)CNC(=O)CN(C)S(=O)(=O)c1cccc2nsnc12 (centres undefined) 15.8 µM [inhibitor, partial curve]
COc1ccc(NC(=O)Cn2nnc(C(=O)NCc3ccccc3)c2N)c(OC)c1 4.47 µM [inhibitor, full curve]
O=C(CCl)Nc1ccc(N2CCCCCC2)cc1 17.8 µM [inhibitor, partial curve]
Cc1ccc(OC(=O)c2cncc(Br)c2)c(C)c1 44.7 µM [inhibitor, single point]
Cc1ccc(OCc2ccc(C(=O)NN)o2)cc1C 50.1 µM [inhibitor, single point]
COc1ccc(/C=N/NC(=O)CC(=O)NCCc2ccccc2)cc1OC 22.4 µM [inhibitor, partial curve]
CCCCOC(=O)c1ccc(NC(=O)c2ocnc2C)cc1 28.2 µM [inhibitor, partial curve]
CCN(C(=O)COC(=O)c1ccc(Br)o1)C1CCCCC1 35.5 µM [inhibitor, partial curve]
COc1cc(CNc2ccc(O)cc2)cc(Br)c1OCc1ccccc1 14.1 µM [inhibitor, partial curve]
COc1cccc2sc(N(CCCN(C)C)C(=O)c3ccc(S(=O)(=O)N4CCc5ccccc5C4)cc3)nc12 22.4 µM [inhibitor, partial curve]
CCc1ccc2c(CC(=O)Nc3nnc(C4CC4)s3)coc2c1 39.8 µM [inhibitor, partial curve]
COc1ccc(CNC(=O)CN2N=C(c3ccc(Cl)cc3)CCC2=O)cc1 7.94 µM [inhibitor, full curve]
COc1cccc(NC(=O)C2CCCN(c3ncnc4onc(-c5ccc(F)cc5)c34)C2)c1 (centres undefined) 4.47 µM [inhibitor, full curve, poor fit]
COc1ccc(-c2onc(C)c2C)cc1S(=O)(=O)NCc1cccs1 12.6 µM [inhibitor, partial curve]
COc1ccc(Nc2ncnc3c2cnn3Cc2ccccc2)cc1 44.7 µM [inhibitor, single point]
O=C1CC2(CCCCC2)Oc2ccc(O)cc21 25.1 µM [inhibitor, partial curve]
Cc1cccc(C)c1OCc1cc(C(=O)N(C)CCc2ccccn2)no1 31.6 µM [inhibitor, single point]
COc1cccc(/C=C(/C(=O)OCC(=O)NC2CCCCCCC2)c2ccccc2)c1 20 µM [inhibitor, partial curve]
FC(F)(F)c1cccc(/C=N/NC(=S)NC2CCCCC2)c1 7.94 µM [inhibitor, full curve, poor fit]
O=C1CC(c2ccc(OCCCCCOc3ccc(C4CC(=O)NC4=O)cc3)cc2)C(=O)N1 (centres undefined) 22.4 µM [inhibitor, partial curve]
Nc1cc(Cl)ccc1Oc1ccc2ccccc2c1 14.1 µM [inhibitor, partial curve]
COc1ccc(/C=N/n2c(-c3n[nH]c4c3CCC4)n[nH]c2=S)cc1OC 31.6 µM [inhibitor, partial curve]
Cc1ccc(NC(=O)COC(=O)CN2C(=O)c3ccccc3C2=O)cc1S(=O)(=O)N(C)C 50.1 µM [inhibitor, single point]
CC(C)CCOc1cccc(OCC(=O)Nc2ccncc2)c1 50.1 µM [inhibitor, single point]
O=C(Nc1cccc(-n2cccn2)c1)C1CCCN(Cc2cc3ccccc3[nH]2)C1 (centres undefined) 14.1 µM [inhibitor, partial curve]
CCc1c(C)sc(NC(=S)Nc2cccnc2)c1C(=O)OC 31.6 µM [inhibitor, partial curve]
O=C(CN1CCN(c2ccc(F)cc2)CC1)Nc1ccccc1[N+](=O)[O-] 31.6 µM [inhibitor, partial curve]
CC(C)N=c1scc(-c2cccs2)n1/N=C/c1ccc(O)c(O)c1O 25.1 µM [inhibitor, partial curve]
CCOc1ccc(OCc2ccc(C(=O)N(CC)CC)cc2)cc1 25.1 µM [inhibitor, partial curve]
CS(=O)(=O)c1ccccc1-c1nc(-c2ccc(C(F)(F)F)cc2)no1 39.8 µM [inhibitor, partial curve]
C=CCn1c(Cc2cccs2)nnc1SC/C=C/c1ccccc1 39.8 µM [inhibitor, single point]
Cc1cc(C)cc(OCC(=O)OCC(=O)Nc2ccc(Cl)cn2)c1 12.6 µM [inhibitor, partial curve]
O=C(NCc1cc(C(F)(F)F)cc(C(F)(F)F)c1)C1CC(c2cccc([N+](=O)[O-])c2)=NO1 (centres undefined) 3.16 µM [inhibitor, full curve, poor fit]
NS(=O)(=O)c1cccnc1Nc1cccc(C(F)(F)F)c1 7.94 µM [inhibitor, partial curve]
COc1ccccc1NC(=O)c1cc2c(=O)n(Cc3cccs3)ccc2nc1C 15.8 µM [inhibitor, partial curve]
C#CC(C)(CC)NC(=O)c1cc2nc(C3CC3)cc(C(F)(F)F)n2n1 (centres undefined) 31.6 µM [inhibitor, single point]
Cc1ccc(O)c(NC(=O)CCS(=O)(=O)c2nc(-c3cccs3)cc(C(F)(F)F)n2)c1 22.4 µM [inhibitor, partial curve]
Cc1ccc(NC2c3ncccc3C(=O)N2C2CCCCC2)cc1 (centres undefined) 28.2 µM [inhibitor, single point]

From PubChem BioAssay AID485281 (National Center for Advancing Translational Sciences (NCATS), 2010)
